# From PubChem BioAssay AID2546 (National Center for Advancing Translational Sciences (NCATS), 2010)
# The whole screen tested about 310,000 compounds, of which about 11,000 (3.5%) were called active. This list was built around the results that the source calls inconclusive (neither active nor inactive); the mix of calls is not that of the screen. The call rests on the fitted dose curve; in most records, active means well fitted inhibition curve with a large enough effect; inconclusive means small, poorly fitted or top-dose-only effect, or effect the other way; inactive means flat fitted curve, though single readings scatter. Potencies of inconclusive entries are left out as doubtful fits.
# Experiment: VP16 counterscreen qHTS for inhibitors of ROR gamma transcriptional activity;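 further: Gal4-VP16 expression switched on by copper sulfate through the metallothionein promoter; nearly all actives have a fitted effect of over 50% in size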
# Conditions: Drosophila S2 Gal4-VP16 UAS-luciferase, luminescence, 20 h; activity, negative = inhibition: at 53.6 µM (top of the series)
# On the % scale 0 is the no-effect control and ±100 the full control effect; potency means the concentration at half of the fitted maximal effect; tags describe the fitted curve by direction and shape.
Structure (SMILES),"activity, negative = inhibition",Potency
O=C(Nc1ccc(OC(F)F)cc1)c1ccccn1,inactive: -0.692% [at 10 µM],
Cc1ccc(C)c(S(=O)(=O)Nc2ccc3scnc3c2)c1,,"inconclusive [inhibitor, single point]"
Clc1ccc(-c2nnc3n2CCCCC3)cc1,,inactive
O=C(Nc1cccc(O)c1)c1cc(-c2ccc3c(c2)OCO3)on1,,active: 1.41 µM
Cc1ccc(-c2nc(SCC(=O)Nc3ccccc3OC(F)F)c3c(C)c(C(=O)O)sc3n2)cc1,,"inconclusive [inhibitor, partial curve]"
CCc1nnc(NC(=O)c2cc(-c3ccncc3)nc3ccccc23)s1,,inactive
CN1CCN(c2nc3ccccn3c(=O)c2C=O)CC1,,inactive
COc1ccc(Br)cc1CN(C)CC(=O)NCCc1ccccc1,,inactive
CCn1c(COc2ccccc2C)nnc1SCC(=O)CC(=O)Nc1ccccc1,,"inconclusive [inhibitor, single point]"
Nc1ccc(C2=Nc3cccc4cccc(c34)N2)cc1,,"inconclusive [inhibitor, single point]"
CCN(CC(=O)NC(C)C)Cc1nc2sc3c(c2c(=O)[nH]1)CCC3,,active: 4.47 µM
COc1cc(C(=S)N2CCCC2)ccc1OCc1ccc(C)cc1,,"inconclusive [inhibitor, single point]"
COc1ccc2cc(C(=O)COC(=O)COc3ccc4c(C)cc(=O)oc4c3)ccc2c1,,"inconclusive [activator, single point]"
COc1ccc(Cc2nnc(SCC(=O)NC3CCCC3)o2)cc1,,"inconclusive [inhibitor, partial curve]"
COc1cc(/C=C2/SC(=S)N(CC(=O)O)C2=O)ccc1OCC(=O)Nc1ccc(C)c(C)c1,,inactive
Nc1nc2ccccc2cc1-c1cccs1,,inactive
NNC(=O)c1sc(-c2ccc(Cl)cc2)cc1N,,"inconclusive [inhibitor, single point]"
COc1cc(/C=N/Nc2nc(C)nc3c2cnn3-c2ccccc2)ccc1O,,inactive
CC1CCCCC1Nc1ncnc2sccc12 (centres undefined),,"inconclusive [inhibitor, single point]"
C/C(CCC(=O)OC[C@@H]1O[C@H](C#Cc2ccccc2)C=C[C@@H]1Oc1ccc(C)cc1)=N/OC[C@@H](O)[C@H]1O[C@H]2OC(C)(C)O[C@H]2[C@@H]1O,inactive: -7.11% [at 10 µM],
CCC(C)[C@H](NC(=O)N1CC(=O)Nc2ccccc21)C(=O)N[C@H](C(=O)O)c1ccccc1 (some centres undefined),,inactive
CCOC(=O)/C(=N\Nc1ncnc2ccccc12)c1ccc(C)cc1,,active: 12.6 µM
Cc1[nH]nc(-c2ccc(OCc3cnn(-c4ccccc4)c3)cc2O)c1Oc1ccccc1F,,active: 10 µM
CCC(=O)Nc1c(-c2ccccc2Cl)c(=O)c2ccccc2n1C,,inactive
Cc1ccc(CN(Cc2ccccn2)C(=O)Nc2ccc(C)c(C)c2)cc1,,inactive

Structure (SMILES),"activity, negative = inhibition",Potency
Cc1cccc(C)c1NCc1n[nH]c(=S)n1-c1ccccc1,,"inconclusive [inhibitor, full curve]"
Clc1ccc(C[n+]2cc(-c3ccccc3)n3c2CCCCC3)c(Cl)c1,,active: 12.6 µM
COC(=O)C1C/C(=N/NS(=O)(=O)c2ccc(C)cc2)CS1 (centres undefined),,inactive
CCOc1ccc2nc(NC(=O)CSc3nc4cccnc4n3C)sc2c1,,"inconclusive [inhibitor, single point]"
CCS(=O)(=O)c1ccc(O)c(NC(=O)c2cc(OC)c(OC)c(OC)c2)c1,,inactive
Cc1cc2cc(CNC(=O)CCC(=O)O)ccc2[nH]1,,inactive
Cc1ccc(-c2csc(N(CCc3ccccc3)C(=O)COc3ccccc3)n2)cc1,,inactive
Cc1ccc(/C=C/C(=O)Nc2cccnc2)o1,,"inconclusive [inhibitor, partial curve, poor fit]"
Cn1c(=O)cc(OCCCC(=O)Nc2ccc3c(c2)OCCO3)c2ccccc21,,"inconclusive [activator, single point]"
O=C(Nc1ccc(N2CCN(c3ccc(C(F)(F)F)cn3)CC2)nc1)c1cccs1,,inactive
Cc1nc(/C=C/c2ccccc2)cc(/C=C/c2ccccc2)n1,,"inconclusive [inhibitor, single point]"
O=C(CCSc1ccccc1)Nc1nnc(-c2ccccc2)o1,,active: 11.2 µM
COCCN1C(=O)N(c2ccc(OC)cc2)C(=O)C1CC(=O)Nc1cccc(F)c1 (centres undefined),,inactive
O=C(CCSc1ccccc1)Nc1nnc(-c2cccs2)o1,,active: 10 µM
O=C(c1cnn(C(=O)COc2ccccc2F)c1)c1cc(F)ccc1O,,"inconclusive [activator, single point]"
CN(Cc1ccccc1)C(=O)c1[nH]cnc1C(=O)N[C@@H](CCCCNC(=O)OC(C)(C)C)C(=O)OC(C)(C)C,,"inconclusive [inhibitor, single point]"
O=C(Oc1cc(Cl)ccc1Cl)c1ccc(N2CCOCC2)c([N+](=O)[O-])c1,,"inconclusive [inhibitor, single point]"
O=C(O)CC/C(=N/Nc1ncc(C(F)(F)F)cc1Cl)C(=O)O,,"inconclusive [inhibitor, single point]"
COc1ccc(C2CC(c3ccc(OC)cc3)n3nc(NC(=O)c4cccs4)nc3N2)cc1 (centres undefined),,"inconclusive [inhibitor, single point]"
Clc1ccc(-n2ncc3c(NCc4ccccn4)ncnc32)cc1,,inactive
CO/N=C(/C(=O)N[C@@H]1C(=O)N2C(C(=O)O)=C(CSc3nnnn3C)CS[C@H]12)c1csc(N)n1,,inactive
CCOC(=O)C1=C(N)Oc2ccc3ccccc3c2C1c1cccc(O)c1 (centres undefined),,"inconclusive [inhibitor, single point]"
Cc1sc2ncnc(N/N=C/c3cccc(O)c3)c2c1C,,"inconclusive [inhibitor, single point]"
CC(C)c1onc(C(=O)N2CCCCC2)c1[N+](=O)[O-],,"inconclusive [activator, single point]"
COc1ccc(N(Cc2cc3cc(OC)ccc3[nH]c2=O)S(=O)(=O)c2ccc(NC(C)=O)cc2)cc1,,inactive

Structure (SMILES),"activity, negative = inhibition",Potency
COc1cc2cc(CN(Cc3nnnn3C3CCCC3)C3CCCC3)c(=O)[nH]c2cc1OC,,inactive
CC1CCCCN1C(=O)CSc1nnc(-c2ccco2)o1 (centres undefined),,"inconclusive [inhibitor, partial curve]"
CCN1CCN(S(=O)(=O)c2ccc(C(C)(C)C)cc2)CC1,,inactive
O=C(NNc1nc2cc3c(cc2s1)OCO3)c1cccc(F)c1,,"inconclusive [inhibitor, partial curve, poor fit]"
O=C(COC(=O)C1CC1)Nc1ccc2c(c1)OCO2,,"inconclusive [activator, single point]"
Cc1cccc(NC(=S)NC2CC3CCCC(C2)N3Cc2cccs2)c1C (centres undefined),,"inconclusive [inhibitor, single point]"
Cc1cc(SCC(=O)c2cccs2)n2nc(C)c(-c3ccc(Cl)cc3)c2n1,,"inconclusive [inhibitor, full curve]"
CC(C)c1ccc2nc(NC(=O)C3CC3)sc2c1,,"inconclusive [inhibitor, full curve, poor fit]"
CC(C)c1ccc(CNc2ncc(Br)cn2)cc1,,"inconclusive [activator, full curve, poor fit]"
Cc1nc(-c2cccs2)sc1C(=O)O,,"inconclusive [inhibitor, single point]"
O=C1CCCC/C1=C/Nc1cccc(C(F)(F)F)c1,inactive: -6.39% [at 10 µM],
COc1cccc(-c2csc(N3CCN(C(=S)Nc4cccc(C)c4)CC3)n2)c1,,active: 3.16 µM
CCc1cccc(C)c1NC(=O)Nc1c(Br)cnn1C,,inactive
CCOc1ccc(-c2[nH]ncc2-c2csc(C)n2)c(O)c1,,"inconclusive [inhibitor, single point]"
O=C1C2C3C=CC(C3=C3CCCCC3)C2C(=O)N1Cc1ccccc1 (centres undefined),,"inconclusive [inhibitor, single point]"
Nc1nc(Cl)cc(N2CCC(c3cc(-c4ccc(Cl)cc4)n[nH]3)CC2)n1,,"inconclusive [inhibitor, single point]"
CCOC(=O)N1CCC(NC(=O)c2cc(C(=O)Nc3ccc(S(=O)(=O)N4CCCCC4)cc3)ccc2CO)CC1,,"inconclusive [inhibitor, single point]"
C[C@H](NC(=O)c1nc[nH]c1C(=O)NC(c1ccccc1)c1ccccc1)C(=O)OC(C)(C)C,,active: 4.47 µM
FC(F)(F)c1cccc(-n2cc(-c3ccccc3)[nH]c2=S)c1,,"inconclusive [inhibitor, partial curve]"
CCSc1nnc(NC(=O)c2cccc(S(=O)(=O)N(C)c3ccc(C)cc3)c2)s1,,"inconclusive [inhibitor, single point]"
C/C(=N\N1CCN(Cc2ccccc2)CC1)c1ccco1,,"inconclusive [activator, partial curve]"
CN(CC(=O)Nc1ccc(F)c(F)c1F)c1cnccn1,,"inconclusive [inhibitor, single point]"
COc1ccc(-c2csc(NC(=O)c3ccccc3NS(=O)(=O)c3ccc(F)c(F)c3)n2)cc1,,active: 3.98 µM
C[C@@H](NC(=O)c1nc[nH]c1C(=O)N[C@@H](Cc1ccccc1)C(=O)OCc1ccccc1)c1ccccc1,,active: 7.08 µM
